The other results are listed elsewhere or left out. Sequences were assembled here from the parent chain. Inactive controls read about 0.05.
B1: TEV protease; numbered along this chain (parent)
chain: MGESLFKGPRDYNPISSSICHLTNESDGHTTSLYGIGFGPFIITNKHLFRRNNGTLVVQSLHGVFKVKDTTTLQQHLVDGRDMIIIRMPKDFPPFPQKLKFREPQREERICLVTTNFQTKSMSSMVSDTSCTFPSGDGIFWKHWIQTKDGQCGSPLVSTRDGFIVGIHSASNFTNTNNYFTSVPKNFMELLTNQEAQQWVSGWRLNADSVLWGGHKVFMVKPEEPFQPVKEATQL

Variants of: B1
Test: raw area under fraction-flipped curve 0-4 h after induction (AUC4h, not background-subtracted), DNA-recorder readout of cleavage of the substrate (dimensionless); higher = more cleavage of the substrate by the protease variant
Conditions: temperature: 34 °C; time window: 0-4 h after rhamnose induction
Protocol: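 In vivo DNA recorder in E. coli TOP10(DE3) ΔrhaA at 34 °C. Each TEVp single-site mutant (parent TEVp 0) is paired with a single-site variant of the 7-mer TEVs (canonical ENLYFQ|S). The substrate sits between flexible linkers in a Bxb1-sfGFP-TEVs-SsrA fusion, so cleavage stabilises Bxb1 and speeds flipping of a recombination array, read by NGS. The value is the raw area under the fraction-flipped curve over 0-4 h after rhamnose induction (AUC4h), with ≥20 reads per time point. It is not background-subtracted; inactive controls average about 0.047.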
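Also: Bxb1 expression induced with 0.2% (w/v) L-rhamnose at OD600 near 0.5, cultures sampled hourly, flipped fraction per protease–substrate barcode pair counted by paired-end Illumina sequencing.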

Variant | area with substrate ENLYFCS | area with substrate ENLYFDS | area with substrate ENLYFES | area with substrate ENLYFFS | area with substrate ENLYFIS | area with substrate ENLYFKS | area with substrate ENLYFLS | area with substrate ENLYFMS | area with substrate ENLYFNS | area with substrate ENLYFPS | area with substrate ENLYFRS | area with substrate ENLYFSS | area with substrate ENLYFTS | area with substrate ENLYFVS | area with substrate ENLYFWS | area with substrate ENLYFGS | area with substrate ENLYFYS | area with substrate ENLYFHS
Q146M | 0.0369 | 0.0672 | 0.0698 | 0.08 | 0.0568 | 0.0518 | 0.0611 | 0.0754 | 0.0731 | 0.0534 | 0.0531 | 0.0656 | 0.0648 | 0.0434 | 0.0548 | – | – | –
I85R | – | 0.0577 | 0.0646 | 0.0575 | 0.0583 | – | – | 0.0597 | 0.031 | 0.0726 | 0.0581 | – | 0.0744 | – | – | 0.0502 | 0.0517 | –
G162P | – | 0.0468 | 0.0644 | 0.012 | 0.0403 | – | – | 0.0618 | – | 0.0703 | 0.0479 | – | 0.0485 | – | – | 0.0441 | 0.0373 | 0.0413
S158G | 0.0676 | 0.0605 | 0.0535 | 0.0618 | 0.0491 | – | – | 0.0662 | 0.0616 | 0.0678 | 0.0606 | 0.0598 | 0.0686 | 0.0615 | 0.0578 | 0.0764 | – | 0.0574
M188P | 0.0524 | 0.0721 | 0.056 | 0.0761 | 0.0516 | 0.0609 | 0.0651 | 0.0532 | 0.084 | – | 0.0599 | – | 0.0575 | – | 0.0553 | – | – | –
Q194F | 0.0417 | – | – | 0.0485 | 0.0526 | – | – | – | – | 0.0603 | – | 0.0585 | 0.059 | 0.0502 | 0.0623 | – | 0.0572 | –
R106A | 0.0605 | 0.0432 | 0.0729 | 0.0625 | 0.0657 | 0.0655 | 0.0575 | – | – | 0.0351 | 0.0633 | 0.0539 | 0.0788 | 0.0629 | – | 0.0689 | – | 0.0869
S124P | 0.0644 | 0.0598 | 0.0653 | 0.0772 | 0.066 | 0.0825 | 0.0544 | 0.0621 | 0.0614 | 0.0544 | 0.0606 | 0.0622 | 0.0545 | – | 0.0569 | 0.0615 | 0.0595 | 0.0615
V165R | – | 0.044 | 0.0583 | 0.0597 | 0.0634 | 0.0655 | 0.0532 | 0.0431 | 0.0532 | – | 0.0547 | – | 0.0474 | 0.0393 | 0.0349 | – | 0.0085 | 0.0675
R109G | – | 0.0527 | 0.0647 | 0.0583 | 0.0612 | 0.0375 | – | 0.0737 | 0.0593 | 0.0593 | 0.0658 | – | 0.0593 | 0.0079 | 0.0643 | 0.0542 | 0.0599 | 0.0561
W203N | 0.0578 | – | 0.0669 | – | 0.0574 | – | 0.0689 | 0.0872 | 0.0624 | 0.0659 | 0.0604 | – | 0.0581 | – | – | – | 0.0411 | 0.0491
D161A | 0.0409 | – | 0.053 | 0.0554 | 0.042 | 0.0449 | – | – | 0.0501 | 0.047 | – | 0.05 | 0.0465 | 0.0057 | 0.0396 | – | – | 0.0774
C111S | 0.0629 | 0.0565 | 0.0646 | 0.063 | 0.0566 | 0.0522 | – | 0.0649 | 0.0643 | 0.0517 | 0.0777 | 0.0486 | 0.0582 | 0.0853 | – | 0.0631 | 0.059 | 0.0855
